Measured values: PubChem BioAssay AID504845 (National Center for Advancing Translational Sciences (NCATS), 2011)
Among all 390,000 compounds or so, about 150 (0.038%) were called active. This list was built around the results that the source calls inconclusive (neither active nor inactive); the mix of calls is not that of the screen. The call rests on the fitted dose curve; in most records, active means well fitted inhibition curve with a large enough effect; inconclusive means small, poorly fitted or top-dose-only effect; inactive means no such curve, though single readings can be large or run the other way. Potencies of inconclusive entries are doubtful fits and often do not repeat.

Target: Regulator of G-protein signaling 4 (Homo sapiens) (UniProt P49798)
Chain of UniProt P49798 (P49798 whole entry, looked up): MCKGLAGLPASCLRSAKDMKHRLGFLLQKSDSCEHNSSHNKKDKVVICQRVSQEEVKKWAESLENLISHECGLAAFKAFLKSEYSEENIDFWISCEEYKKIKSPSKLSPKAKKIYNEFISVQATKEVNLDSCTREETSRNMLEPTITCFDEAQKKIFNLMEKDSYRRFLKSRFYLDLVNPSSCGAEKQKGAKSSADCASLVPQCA
Experiment: Inhibitors of Regulator of G Protein Signaling (RGS) 4: qHTS; further: nearly all actives have a fitted effect of over 75% in size
Conditions: Transcreener GDP fluorescence polarization, RGS4-accelerated GTP hydrolysis; series mostly up to 114 µM
Procedure, shortened: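 MLSMR compounds (23 nl, pin-transferred) preincubated 10 min at room temperature with a 500nM (2x) first reagent, then RGS4 at 900nM (2x) plus Transcreener GDP mix added; fluorescence polarization (620/688 nm) read before and after 90 min at 30 °C.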
Potency means the concentration at half of the fitted maximal effect; tags describe the fitted curve by direction and shape.

**Q.** Which Potency does the source give for `CCCCSc1ccc2nc(-c3ccc(C#N)cc3)cn2c1` here?
**A.** inconclusive: 89.1 µM [inhibitor, single point]

**Q.** Which Potency does the source give for `Cc1[nH]c(=O)cc2ccccc12` here?
**A.** inactive

**Q.** Which Potency does the source give for `COc1ccccc1C(=O)Nc1sc2c(c1C(=O)NCc1ccco1)CCCC2` here?
**A.** inconclusive: 79.4 µM [inhibitor, single point]

**Q.** With `C=C(C)CN=C1SC(C(=O)Nc2sc3c(c2C(=O)OC)CCC3)C(N)=C1C(N)=O` (stereo not drawn) as the molecule, how does the Potency read?
**A.** inactive

**Q.** With `Cc1ccc(NC(NC(=O)c2cccnc2)C(Cl)(Cl)Cl)cc1` (stereo not drawn) as the molecule, how does the Potency read?
**A.** inconclusive: 89.1 µM [inhibitor, single point]

**Q.** Which Potency does the source give for `Cc1cc(NC(=O)c2ccc(Br)o2)ccc1NC(=O)c1ccco1` here?
**A.** inactive

**Q.** With `COC(=O)C1=C(C)NC(C)=C([N+](=O)[O-])[C@@H]1c1ccccc1C(F)(F)F` as the molecule, how does the Potency read?
**A.** inconclusive: 0.947 µM [inhibitor, partial curve, poor fit]

**Q.** For `O=C(CCN1C(=O)/C(=C/c2ccc(Cl)cc2)SC1=S)Nc1cccc(C(=O)O)c1`, which Potency is on record?
**A.** inconclusive: 100 µM [inhibitor, partial curve, poor fit]

**Q.** With `Cc1ccccc1C(OCCN(C)C)c1ccccc1` (stereo not drawn) as the molecule, how does the Potency read?
**A.** inconclusive: 89.1 µM [inhibitor, partial curve, poor fit]

**Q.** How did the Potency turn out when `CC(C)c1cnc2c(c1SCC(=O)Nc1ccc(OC(F)(F)F)cc1)c(=O)n(C)c(=O)n2C` was run?
**A.** inconclusive: 89.1 µM [inhibitor, single point]

**Q.** `CCN(CC)c1ccc(/C=C2\CCC(/C=C(/C#N)C(=O)Nc3ccccc3F)=C2N2CCOCC2)cc1` was tested. Which Potency did it give?
**A.** inconclusive: 70.8 µM [inhibitor, partial curve, poor fit]

**Q.** For `COCCn1cnnc1SCC(=O)c1ccc(S(=O)(=O)N2CCCC2)cc1`, which Potency is on record?
**A.** inconclusive: 31.6 µM [inhibitor, full curve, poor fit]

**Q.** For `Cc1ccc(N/N=C2\CCS(=O)(=O)c3sccc32)cc1`, which Potency is on record?
**A.** inconclusive: 100 µM [inhibitor, single point]

**Q.** How did the Potency turn out when `Fc1ccc2c(c1)C(c1ccc(N3CCOCC3)cc1)=NNC(c1cccs1)=N2` was run?
**A.** inactive

**Q.** Which Potency does the source give for `O=C(Nc1ccccc1N1CCOCC1)C1=COCCO1` here?
**A.** inconclusive: 89.1 µM [inhibitor, single point]

**Q.** How did the Potency turn out when `CCOC(=O)c1c(-c2ccc(C)o2)csc1NC(=O)COC(=O)c1cccs1` was run?
**A.** inconclusive: 79.4 µM [inhibitor, partial curve, poor fit]

**Q.** `O=C(Nc1cccc2nsnc12)c1ccc(-c2cccc(Cl)c2)o1` was tested. Which Potency did it give?
**A.** inconclusive: 79.4 µM [inhibitor, partial curve, poor fit]

**Q.** For `O=C(O)COc1ccccc1/C=C1\SC(=S)N(/N=C/c2ccccc2O)C1=O`, which Potency is on record?
**A.** inconclusive: 39.8 µM [inhibitor, partial curve, poor fit]
